Test results: publication PMC4330362, “The ATP-mediated formation of the YgjD–YeaZ–YjeE complex is required for the biosynthesis of tRNA t^6A in Escherichia coli” (Nucleic Acids Research, 2015)

Molecular target: T1, YgjD (TsaD) (Escherichia coli K-12, UniProt P05852 1-337)
T1 construct: YgjD (TsaD), Escherichia coli K-12, 337 residues; gene amplified from genomic DNA, cloned in pET9a; Alone it is a homodimer by gel filtration and SAXS; also called Ec–YgjD; source: E. coli BL21(DE3), purified (details in the Supplementary Materials)
Experiment: ITC; YgjD as 'titrant' (20-30 uM), YeaZ as 'injectant' (200-360 uM); in absence of nucleotides (ADP or ATP)
Details: both partners purified

Sequence of YgjD (TsaD) (P05852 whole entry): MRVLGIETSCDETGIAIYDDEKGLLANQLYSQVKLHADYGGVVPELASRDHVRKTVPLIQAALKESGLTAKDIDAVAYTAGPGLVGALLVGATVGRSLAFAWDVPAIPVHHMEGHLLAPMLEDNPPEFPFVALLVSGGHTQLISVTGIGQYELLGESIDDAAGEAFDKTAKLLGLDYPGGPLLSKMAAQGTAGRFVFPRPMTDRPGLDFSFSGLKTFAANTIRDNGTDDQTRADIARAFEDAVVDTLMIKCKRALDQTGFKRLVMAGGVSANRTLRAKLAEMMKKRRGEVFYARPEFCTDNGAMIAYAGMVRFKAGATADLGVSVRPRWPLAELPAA

B1: YeaZ^[…] (domain or fragment)
chain: not shown
notes: Made by Quikchange mutagenesis of pET9a–yeaZ (YeaZ–Δ220); also called YeaZ–Δ220; YeaZ Δ220–231; source: E. coli BL21(DE3), purified (details in the Supplementary Materials)
For B1, the Kd was 30 ± 10 nM, the dH was 5.96 ± 0.12 kcal/mol and the “stoichiometry N” value was 1.06 ± 0.0064.
